# Assay results as given in PubChem BioAssay (Tox21).
# The shares of active, inactive and inconclusive entries below differ from those in the screen. For part of these data: Potencies of inconclusive entries are doubtful fits and often do not repeat. Calls of active or inactive are those of the source. Unless noted, the call rests on the fitted dose curve; in most records, active means well fitted curve in the direction sought with a large enough effect in the repeat runs; inconclusive means weak or mixed curves; inactive means no such curve, though single readings can be large; an effect the other way counts as inactive or inconclusive.
# Columns and labels:
# [1] = qHTS assay to identify small molecule antagonists of the TGF-beta/Smad signaling pathway (AID 1346924; active means well fitted inhibition curve with a large enough effect in the signal ratio in the repeat runs, not every such curve was filed as active; inconclusive means weak or mixed curves; the % refers to the signal ratio; further: potency means the concentration at half of the fitted maximal effect); settings: SBE-bla HEK293T, TGF-beta/Smad reporter, beta-lactamase ratio; activity, negative = inhibition: at 76.8 µM (top of the series) unless noted
# Method in brief: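 Read-out was FRET-substrate fluorescence (405 nm excitation; 460 and 530 nm emission) after 2 h at room temperature. Before that, cells carrying a Smad-binding-element beta-lactamase reporter in HEK 293T had been stimulated 5 h at 37 C with TGF-beta1 (0.25 ng/mL addition solution) in the presence of test compound.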
# [2] = Human pregnane X receptor (PXR) small molecule agonists, qHTS cell viability counter screen (AID 1346977); settings: PXR-Luc HepG2 viability, CellTiter-Fluor, 24 h; series mostly up to 92.4 µM; further: potency means the concentration at half of the fitted maximal effect; nearly all actives have a fitted effect of over 50% in size
# Method in brief: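 Tox21 qHTS format; PXR-Luc HepG2, 2,000/well, charcoal-stripped FBS 5%. Cpd exposure 24hr. Read: CellTiter-Fluor fluorescence, multiplexed with luciferase.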
# [3] = Caspase-3/7 induction in HepG2 cells by small molecules, qHTS assay (AID 1346978); settings: HepG2 caspase-3/7 activation, Caspase-Glo luminescence, 17 h; series mostly up to 92.4 µM; further: potency means the concentration at half of the fitted maximal effect; nearly all actives have a fitted effect of over 15% in size
# Method in brief: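 Caspase-3/7 induction was measured by Caspase-Glo 3/7 luminescence (30 min, room temperature) after a 17 hr compound exposure of wild-type HepG2 cells seeded at 2,000 per well and pre-incubated 5 hr.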
# [4] = Caspase-3/7 induction in CHO-K1 cells by small molecules, qHTS cell viability counter screen (AID 1346979); settings: CellTiter-Fluor fluorescence, 17 h; series mostly up to 92.4 µM; further: potency means the concentration at half of the fitted maximal effect; nearly all actives have a fitted effect of over 35% in size
# Method in brief: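 CellTiter-Fluor viability check, qHTS format: wild-type CHO-K1, 16hr compound treatment, 1hr reagent incubation, fluorescence read.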
# [5] = biological target: Cytochrome P450 2C9 (Homo sapiens) (UniProt P11712); assay: Cytochrome P450 Family 2 Subfamily C Member 9 (CYP2C9) small molecule antagonists: luciferase reporter qHTS assay (AID 1671198); settings: P450-Glo CYP2C9 enzyme assay, luciferin luminescence; series mostly up to 115 µM; further: nearly all actives have a fitted effect of over 50% in size; further: potency means the concentration at half of the fitted maximal effect
# Sequence of UniProt P11712 (P11712 whole entry, looked up): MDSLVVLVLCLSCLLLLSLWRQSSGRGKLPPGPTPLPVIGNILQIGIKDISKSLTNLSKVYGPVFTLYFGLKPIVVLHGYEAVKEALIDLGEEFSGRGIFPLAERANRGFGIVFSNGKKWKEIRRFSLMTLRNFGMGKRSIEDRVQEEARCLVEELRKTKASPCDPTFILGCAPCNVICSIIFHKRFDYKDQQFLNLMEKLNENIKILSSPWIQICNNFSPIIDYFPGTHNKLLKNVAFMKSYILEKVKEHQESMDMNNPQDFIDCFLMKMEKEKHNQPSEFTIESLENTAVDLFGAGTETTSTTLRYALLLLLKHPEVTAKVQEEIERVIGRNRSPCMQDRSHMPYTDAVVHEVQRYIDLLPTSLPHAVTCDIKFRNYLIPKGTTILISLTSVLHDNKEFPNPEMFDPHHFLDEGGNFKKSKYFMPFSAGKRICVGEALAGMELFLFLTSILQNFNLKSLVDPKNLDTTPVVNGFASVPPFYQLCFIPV
# Method in brief: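 Enzyme-substrate mix preincubated with compound 10 min at room temperature; reaction started with NADPH regeneration solution, 1 h 37C. Luminescent luciferin product read after 20 min detection reagent.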
# [6] = biological target: Thyrotropin-releasing hormone receptor (Homo sapiens) (UniProt P34981); assay: qHTS assay to identify small molecule agonists of the thyrotropin-releasing hormone receptor (TRHR) signaling pathway (AID 1346891; calls by dose curve; further: potency means the concentration at half of the fitted maximal effect; on activation: on the % scale 0 is the no-effect control and ±100 the full control effect); settings: TRHR-HEK293 calcium fluorescence, agonist mode; series mostly up to 57.6 µM
# Sequence of UniProt P34981 (P34981 whole entry, looked up): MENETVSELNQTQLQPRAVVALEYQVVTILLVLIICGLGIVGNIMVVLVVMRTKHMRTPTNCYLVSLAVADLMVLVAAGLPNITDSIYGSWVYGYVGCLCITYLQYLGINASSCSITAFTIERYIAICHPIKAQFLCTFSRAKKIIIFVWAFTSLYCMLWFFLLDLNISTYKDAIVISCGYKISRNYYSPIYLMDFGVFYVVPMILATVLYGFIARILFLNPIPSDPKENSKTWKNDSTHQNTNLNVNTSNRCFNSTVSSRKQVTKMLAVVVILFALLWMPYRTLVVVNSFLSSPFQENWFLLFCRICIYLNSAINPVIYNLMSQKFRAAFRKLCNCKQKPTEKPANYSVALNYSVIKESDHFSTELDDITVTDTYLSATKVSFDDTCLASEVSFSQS
# Method in brief: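 Screening of agonists relied on calcium signalling in HEK293 cells expressing human TRHR: dye loading 2 h at 37 °C preceded compound addition and a 3-min fluorescence time course.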
# [7] = Caspase-3/7 induction in HepG2 cells by small molecules, qHTS cell viability counter screen (AID 1346981); settings: CellTiter-Fluor fluorescence, 17 h; series mostly up to 92.4 µM; further: on the % scale 0 is the no-effect control and ±100 the full control effect; nearly all actives have a fitted effect of over 30% in size
# Method in brief: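 Treatment of HepG2 cells with DMSO-delivered compounds ran 16 hr at 37 C following a 5-hr pre-incubation of 2,000 cells/well. CellTiter-Fluor fluorescence, read after 1 hr, served as the viability measure in a qHTS format.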
# [8] = biological target: Nuclear receptor subfamily 1 group I member 2 (Homo sapiens) (UniProt O75469); assay: Human pregnane X receptor (PXR) small molecule agonists, qHTS assay (AID 1346982); settings: PXR-Luc HepG2, CYP3A4 luciferase reporter, 24 h; series mostly up to 92.4 µM; further: potency means the concentration at half of the fitted maximal effect; nearly all actives have a fitted effect of over 35% in size
# Sequence of UniProt O75469 (O75469 whole entry, looked up): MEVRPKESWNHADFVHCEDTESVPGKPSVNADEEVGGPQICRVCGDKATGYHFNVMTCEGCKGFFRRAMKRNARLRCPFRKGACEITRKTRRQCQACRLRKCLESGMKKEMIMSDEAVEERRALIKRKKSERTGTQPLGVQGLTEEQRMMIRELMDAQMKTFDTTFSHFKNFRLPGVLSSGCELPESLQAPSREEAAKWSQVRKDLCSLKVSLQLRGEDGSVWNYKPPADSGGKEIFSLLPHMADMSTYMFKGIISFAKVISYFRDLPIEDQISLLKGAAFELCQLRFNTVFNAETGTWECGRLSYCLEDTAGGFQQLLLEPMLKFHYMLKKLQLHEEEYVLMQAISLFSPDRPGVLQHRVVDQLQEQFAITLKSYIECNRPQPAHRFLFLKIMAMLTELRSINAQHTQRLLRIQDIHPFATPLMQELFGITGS
# Method in brief: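 Stable HepG2 line reporting PXR-mediated CYP3A4 expression via luciferase. Treatment: 24 hr with compounds in DMSO at 37 C. Detection: ONE-Glo luminescence.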
# [9] = biological target: Cytochrome P450 1A2 (Homo sapiens) (UniProt P05177); assay: Cytochrome P450 Family 1 Subfamily A Member 2 (CYP1A2) small molecule antagonists: luciferase reporter qHTS assay (AID 1671199); settings: P450-Glo CYP1A2 enzyme, luciferin luminescence, 1 h; series mostly up to 115 µM; further: on the % scale 0 is the no-effect control and ±100 the full control effect; nearly all actives have a fitted effect of over 50% in size
# Sequence of UniProt P05177 (P05177 whole entry, looked up): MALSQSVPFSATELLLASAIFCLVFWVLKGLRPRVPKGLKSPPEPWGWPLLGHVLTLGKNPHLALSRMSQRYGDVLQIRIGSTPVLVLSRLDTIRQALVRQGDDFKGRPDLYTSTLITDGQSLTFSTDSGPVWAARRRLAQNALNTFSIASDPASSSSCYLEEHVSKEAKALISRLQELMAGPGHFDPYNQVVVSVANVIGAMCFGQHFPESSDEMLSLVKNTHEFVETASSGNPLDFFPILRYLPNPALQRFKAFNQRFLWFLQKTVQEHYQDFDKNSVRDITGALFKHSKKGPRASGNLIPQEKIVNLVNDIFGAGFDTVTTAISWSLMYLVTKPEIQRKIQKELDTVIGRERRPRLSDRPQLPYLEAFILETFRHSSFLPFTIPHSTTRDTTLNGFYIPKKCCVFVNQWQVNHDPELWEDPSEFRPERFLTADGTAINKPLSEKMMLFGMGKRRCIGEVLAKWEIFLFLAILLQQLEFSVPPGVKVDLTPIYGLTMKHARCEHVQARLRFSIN
# Method in brief: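 Read-out is luminescence from luciferin detection reagent (20 min) proportional to CYP1A2 activity; compounds in DMSO preincubated 10 min with enzyme and proluciferin substrate, then NADPH regeneration solution, 1 h, room temperature.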
# [10] = biological target: Voltage-gated inwardly rectifying potassium channel KCNH2 (Homo sapiens) (UniProt Q12809); assay: Human Ether-a-go-go-Related Gene (hERG) channel small molecule antagonists: fluorescence cell-based qHTS assay (AID 1671200); settings: hERG-U2OS cells, FluxOR thallium flux fluorescence; series mostly up to 76.8 µM; further: potency means the concentration at half of the fitted maximal effect; nearly all actives have a fitted effect of over 50% in size
# Sequence of UniProt Q12809 (Q12809 whole entry, looked up): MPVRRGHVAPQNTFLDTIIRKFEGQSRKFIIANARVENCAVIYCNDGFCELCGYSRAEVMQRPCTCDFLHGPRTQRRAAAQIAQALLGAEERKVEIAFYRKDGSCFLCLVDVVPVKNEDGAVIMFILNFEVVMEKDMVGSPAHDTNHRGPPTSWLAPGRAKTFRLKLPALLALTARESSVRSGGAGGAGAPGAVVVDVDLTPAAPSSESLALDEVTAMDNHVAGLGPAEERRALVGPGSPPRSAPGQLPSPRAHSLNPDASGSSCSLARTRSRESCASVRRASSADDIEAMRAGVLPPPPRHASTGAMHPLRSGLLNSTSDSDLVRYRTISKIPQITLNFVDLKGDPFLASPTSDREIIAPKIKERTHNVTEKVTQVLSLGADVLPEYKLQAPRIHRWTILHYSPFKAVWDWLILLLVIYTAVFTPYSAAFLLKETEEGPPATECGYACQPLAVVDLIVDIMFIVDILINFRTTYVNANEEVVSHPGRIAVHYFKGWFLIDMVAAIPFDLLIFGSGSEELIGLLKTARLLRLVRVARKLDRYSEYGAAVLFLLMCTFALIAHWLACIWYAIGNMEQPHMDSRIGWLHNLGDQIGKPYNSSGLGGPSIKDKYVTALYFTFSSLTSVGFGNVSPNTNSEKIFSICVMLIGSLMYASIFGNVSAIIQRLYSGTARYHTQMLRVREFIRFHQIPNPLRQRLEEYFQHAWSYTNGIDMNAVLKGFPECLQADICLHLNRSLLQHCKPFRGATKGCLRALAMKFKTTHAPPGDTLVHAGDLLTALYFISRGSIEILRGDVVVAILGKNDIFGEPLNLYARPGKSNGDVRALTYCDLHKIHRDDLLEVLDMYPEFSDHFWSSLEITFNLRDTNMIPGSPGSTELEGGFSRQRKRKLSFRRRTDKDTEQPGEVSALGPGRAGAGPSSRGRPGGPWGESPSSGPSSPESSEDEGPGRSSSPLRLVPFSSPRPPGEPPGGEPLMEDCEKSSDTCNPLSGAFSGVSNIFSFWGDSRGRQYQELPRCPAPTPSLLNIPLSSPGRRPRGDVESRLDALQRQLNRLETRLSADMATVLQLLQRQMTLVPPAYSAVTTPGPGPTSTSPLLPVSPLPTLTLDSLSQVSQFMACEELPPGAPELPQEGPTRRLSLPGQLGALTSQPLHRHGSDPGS
# Method in brief: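 Kinetic two-minute fluorescence traces, sampled at 1 s, were collected following thallium stimulus of U2OS cells (1000 per well) that had been cultured overnight at 37 C and loaded with FluxOR II.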
# [11] = biological target: Cytochrome P450 2C19 (Homo sapiens) (UniProt P33261); assay: Cytochrome P450 Family 2 Subfamily C Member 19 (CYP2C19) small molecule antagonists: luciferase reporter qHTS assay (AID 1671197); settings: P450-Glo CYP2C19 enzyme, luciferin luminescence, 1 h; series mostly up to 115 µM; further: potency means the concentration at half of the fitted maximal effect; nearly all actives have a fitted effect of over 65% in size
# Sequence of UniProt P33261 (P33261 whole entry, looked up): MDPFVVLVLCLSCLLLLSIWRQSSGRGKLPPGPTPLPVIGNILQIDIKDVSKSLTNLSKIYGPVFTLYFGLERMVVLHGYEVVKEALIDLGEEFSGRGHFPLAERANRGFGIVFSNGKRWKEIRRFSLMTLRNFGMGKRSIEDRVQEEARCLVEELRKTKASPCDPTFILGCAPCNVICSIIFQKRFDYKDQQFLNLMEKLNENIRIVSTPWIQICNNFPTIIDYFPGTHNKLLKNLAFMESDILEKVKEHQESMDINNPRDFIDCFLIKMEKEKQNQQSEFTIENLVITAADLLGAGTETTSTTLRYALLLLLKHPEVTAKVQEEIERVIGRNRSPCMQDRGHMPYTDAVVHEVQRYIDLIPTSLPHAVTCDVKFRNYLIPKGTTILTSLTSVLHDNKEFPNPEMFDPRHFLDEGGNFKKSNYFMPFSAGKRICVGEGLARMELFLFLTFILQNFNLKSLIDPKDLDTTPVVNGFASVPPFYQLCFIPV
# Method in brief: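 First, compounds are pinned into enzyme-substrate mix and held 10 min at room temperature. Second, NADPH regeneration solution is added and plates incubate 1 h at 37C. Third, detection reagent is added and luminescence read after 20 min.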
# Tags describe the fitted curve by direction and shape or compound fluorescence and quenching.
smiles,measurement,setting,value
Cc1ccccc1C(=O)Nc1ccc(C(=O)N2CCCC(N(C)C)c3ccccc32)cc1 (centres undefined),"activity, negative = inhibition",[1],inconclusive: 11.4% [at 35.3 µM]
same,Potency,[2],"inconclusive: 33.5 µM [cytotoxic, partial curve, poor fit]"
same,Potency,[3],active: 3.76 µM
same,Potency,[4],"inconclusive: 7.5 µM [cytotoxic, full curve]"
same,Potency,[5],"inconclusive: 17.4 µM [inhibitor, full curve]"
O=S(=O)(c1ccccc1)c1ccc(Cl)cc1,"activity, negative = inhibition",[1],inconclusive: -6.86%
OCCOCCN1CCN(C2=Nc3ccccc3Sc3ccccc32)CC1,Potency,[1],"inconclusive: 3.01 µM [fluorescent, partial curve, poor fit]"
same,"activity, negative = inhibition",[1],inconclusive: 8.27% [at 35.3 µM]
same,Potency,[2],"inconclusive: 33.5 µM [cytotoxic, single point]"
CCN(O)CC,Potency,[6],"inconclusive: 38 µM [activator, partial curve, poor fit]"
same,"activity, negative = inhibition",[1],inconclusive: -11.2%
same,Potency,[2],active: 30 µM
same,Potency,[4],active: 26.7 µM
same,Potency,[7],inactive
same,Potency,[8],active: 59.8 µM
same,Potency,[5],inactive
CCC1=C(C)CN(C(=O)NCCc2ccc(S(=O)(=O)NC(=O)NC3CCC(C)CC3)cc2)C1=O (centres undefined),"activity, negative = inhibition",[1],inconclusive: 4.93% [at 35.3 µM]
O=C1OC2(c3ccccc31)c1ccc(O)c(Br)c1Oc1c2ccc(O)c1Br,Potency,[6],active: 3.89 µM
same,Potency,[1],"inconclusive: 49 µM [rising, partial curve]"
same,Potency,[9],inactive
same,Potency,[10],active: 34.7 µM
CC1=NN(c2cc(S(=O)(=O)O)ccc2Cl)C(=O)C1N=Nc1ccccc1 (centres undefined),Potency,[6],inactive
same,Potency,[8],"inconclusive: 27.3 µM [activator, single point]"
same,Potency,[11],"inconclusive: 79.6 µM [inhibitor, single point]"
